Assay results published in article PMC10668032.
Some of the results follow. At the low end of the ranking the order means little.

molecular target: SIX1 homeodomain (reference allele) (UniProt Q15475); test: universal protein binding microarray; conditions: Universal all-10-mer PBM (8x60K, AMADID 030236), 300 nM GST-tagged protein, Alexa Fluor 488 anti-GST; buffer, salt, pH and temperature not stated; high values mean tight binding; most listed sequences are background and not binding sites; double strand, one strand shown

Sequence | binding signal [E-score]
GCTGTGAA | -0.152
AGGCGATC | 0.271
AGGAGGAG | -0.0312
ACGAAGGC | -0.277
TAACTTCA | 0.048
ACGATTCT | 0.0925
GGCTACAC | 0.000295
GCCGCTCC | -0.127
AAAACAGC | -0.159
AGGGTACG | 0.0799
TAGGATAA | 0.21
CGGGTTAC | 0.08
GGTGGAAA | -0.17
AAGAAGAT | 0.143
GAACCGCC | -0.0988
GAAGTGCA | -0.275
GTTGGAGA | 0.0797
CGGCACTC | -0.172
CACGGAAA | -0.306
CATTCGTC | -0.105
AATCCATT | 0.118
AGACCAAG | -0.0978
CTCTGGTA | 0.096
GTCACAAC | -0.167

Sequence | binding signal [E-score]
CCTCCCTA | 0.0724
GACAATTA | -0.0583
ACATATAT | 0.252
TAAGCCAA | -0.107
GCCGTCGC | -0.284
AGGCGGAA | -0.276
CATGTACG | 0.118
CGCACAAC | 0.015
GCCGTCCC | -0.243
CTTTCAAA | -0.171
GCCCGTCA | -0.121
CTGCCCAG | -0.0635
CGACACAC | 0.1
AACGCTCG | -0.161
CGACCGGC | -0.274
GGTTTCCA | -0.174
CCCAAGAC | -0.0634
ATTCGGGG | 0.17
CCACCACA | -0.0545
TAGCTACA | 0.15
AGTTGTAA | -0.183
GAATTCAA | 0.00865
GGGCTCGA | -0.0193
CACCCTAG | 0.157

Sequence | binding signal [E-score]
AGTATGAA | -0.0157
CAATGGGG | 0.0706
CGGCCAGC | -0.194
TACGATGA | 0.0552
ATTACCCA | 0.0354
AGCCGTGG | -0.194
CGTCACAG | -0.0541
CTTACACC | 0.203
AGATTACG | 0.0717
AAGAGAGA | -0.124
CCAAGTAC | -0.12
ACTCCCAA | -0.0678
AGCTCGGC | 0.00286
AACATGTA | 0.117
AGTGACCG | -0.196
CGGCCCAC | -0.179
ATTACGGG | 0.0536
ACCCTTTG | 0.00558
GACTACGA | -0.168
GGGAATGA | -0.0264
ACAACGAT | 0.18
TAACTGCA | -0.178
CCTGTAAG | -0.0955
CAGGTGCA | -0.291

Sequence | binding signal [E-score]
GAATTAAC | -0.257
CTGTGGTA | -0.175
CCCAGGCA | -0.133
ATTGCTTG | -0.108
CGTGTGCA | -0.0416
GGATGCAA | 0.148
CCGCCACG | -0.0109
ACGTATCG | 0.413
CAATACGG | 0.178
AGTGCACA | -0.0066
CCATACAC | 0.174
CTTCTCTC | -0.147
CAGAACTG | -0.103
CGAAGGCA | -0.241
CTTACCGC | -0.16
CCACCTGG | -0.169
GTGCTGGA | -0.129
GGTCCGGA | 0.0198
CGCATGAC | -0.131
TCGGCAAA | -0.264
CTTTCGGC | -0.198
ATTAATTC | 0.139
